Whole data set: some 2,300 sequences, median “median log2 fold change of GCK-ALFA target abundance (FLAG IP / Myc IP barcode read proportion)” near 0.095, cut for the lowest 2% near -0.47. The list shows a part of the results.
B1: LC3A_28_744 (protein)
chain: MSIEEEIERAIAQAREAAAAGESAVITITVPGTANEEDIEKVIEALYEIAEILKDVPDQAIIVDIDGKLDPKLQQKLMDAGDEIEKKYPNVTVIFALDEE
B2: LC3A_45_1957 (protein)
chain: MYEAVVLALVPEELFDEAVAVLRETSERLSKERGVEVTIDEEALEEARKEAEENGEALLEVTVRSEDKDEALDAASEISDALEAALPDRVATVIAYKEVP
B3: LC3A_3_1784 (protein)
chain: MEEKKEELLKKLKEAGHSEETIKAAEEVLKLLIEKGYEEAFETFIEEMEELIDLPDEILLDMLKEALELLKTNDLSEEEVKEKIKELAELARNEGEIIEL
B4: LC3A_147_465 (protein)
chain: KKYEVVLDVLVKDLTPELLKDFEELAEEIKEKFPDAEVELKVETDPEDPSLTLVTLTVTVDTEEDAEKILDFLDEKEEELEKKYSDQILASMISKQEVEP
B5: LC3A_free_46_2435 (protein)
chain: VVVEIDVSLLHEDKATLEAAVKELVEKAKEIAKKYGGKLEIKVEFSVDEDGNHFADIDITVEVETKEKAEQIANDLIDAIDEIAEKYGVSAIISVEIIEK
B6: LC3A_28_1171 (protein)
chain: SETEKNAEAALKEAKEAKEKGEPAVITITLPSGATQEEVDLVIKTMEEIAELLKDIKGSAIIVDVSSGVPQEHLDLIMDKADEIEEKYPNVSVIIALDED
B7: LC3A_17_576 (protein)
chain: SEEIKKLYEEALKVVEEAAKLAEKLDKEAAKKVKEILEEIKKAYKELSDLEIAKTIAEQMDKVADILDSLEDKDPEATGHLSMEADGVSIEAESLALKLE
B8: LC3A_28_893 (protein)
chain: SAAIKQAEAALAEAEAALAAGSTEPLVLEVKAPSTEEDAEKFLKLLEKIAEVGDKKPGVSIVIDVDSSVSQEIIDKIIDKAEELEKKYPNVTIIIALPED
B9: LC3A_3_1355 (protein)
chain: SEEHIAAQVARLAAAGFSPEVLEAARAAFEALAAQGHQEGIDRLTDALLANKDAPDEKLLRALANLLAELQANPNLTQEEVDALIKLVENDLEIEELEEE
B10: LC3A_free_46_2292 (protein)
chain: YKVEIDVDIGGLTEEQAKEFVKELKEKLKEIAKKYGVEIEVETEIEKNEDGTYSVKVNITIKAETKEIAEKVKDEVIDAIDELAEKYNASYIISYEIKEL
B11: LC3A_3_1462 (protein)
chain: AQELIEEARKILEEQGWSPETIAAAEALLKALAAKGYENAMKTVVELLKEMKGVSSEILLDTFKELLAIVETEDLSEEEVIKKIKEEFAAAKSENEIIEL
B12: LC3A_147_414 (protein)
chain: TVVEIDILVKSKEAVEKIKERMKEIVKELKAKGYKVKLEIKVEEVEPGVYLVDITIEIEAETKEDAEAAANFVLDKIDEMEEELKDEILGSLISVEIEEK
B13: LC3A_132_296 (protein)
chain: MKELAEKYLAELRALIAEAAANIADDAAVRAKLAEIEALIERAEKELTPEEVAEVFREVADDLDALSQQFLAAGREDLALEADGLAILAESRALRAEEAI
B14: LC3A_28_1248 (protein)
chain: SAIEKQLAEALAKAKAAVAAGEEVLIELTVTKDATQEDIDKIIEAMEEIAKLTASLPSTTIVINLEKGVKQENIDKLAEAAERIEEKYPNVTVILALEEE
B15: LC3A_free_39_2210 (protein)
chain: SEEELEKLIKEVAEEGGVDYEYVKKKIEEIQKIAGLSIEQMLEIVKKILEAVKAGADAKEILDEILKIAKELKAEGKSPEEILEAMLEKIEDFRNLVPLD
B16: LC3A_28_1080 (protein)
chain: SEIEKQIEEAIKEVKKAGEKGEEAVVEITVTEDATEEDIEKVIEGIKEIAELAKTSGKVSVIINLDGDIPEEHINKLADAAEEAEEANPNLTVIIALPDE
B17: LC3A_3_1475 (protein)
chain: LEERAKKVLERLKEAGASEEVLKAFEEAAKKLKELGHEEALKTFIEEAEELVGLPSELLLDFAEEALAAVEKYKDDEEKLIEEIKSIAAATRAEAEIEEL
B18: LC3A_59_2032 (protein)
chain: DEEIEEIVKKLKEAKDDIEKMAEIILEGFEEFKDDEEKLKKLKEAIIKALVESGLLSEELAKELIEEAEKIVKEEKDREKALKLIKEELKIALNEEEIEE
B19: LC3A_28_924 (protein)
chain: MTPEEIKKKIREIAEKAIKEGKEALIEITIDGSHSPEEVKEIMDELEREVKRLAEAGIKVYVVVDLDDVSQEVEQIVADRLDEITEKYPLVSAIIALDEE
B20: LC3A_28_733 (protein)
chain: SELEESIKKALEEAKKAAEKGEETVITINVPGTATEEDIEKVIKAMEEIAEITKDLKSTTIIINLDGKVPQENIDKLADHAEEIEKKYPNVTVIIALDEE
B21: LC3A_3_1702 (protein)
chain: SEELLEEAREIAEEQGLSEETIEAILEALKALLEKGYEEAAREFIELLKEAKDLSDETVLAFAEEVKEFVETEDANEEEVIEFIREEYRIALSDQEIEEL
B22: LC3A_28_1121 (protein)
chain: SSLREEWEKALEEAKKEAEEGKDVLAVFKATDDMTEEDLEFLIEKIEEAAKYLESVGQNDILVDLDMPNKPELRDRLIDGVDEIQEKYPSVNIVIALEED
B23: LC3A_28_1333 (protein)
chain: SHIDEELEKAREEAERQVAAGEDVVIEVEITGETTLEEAEYMMERLEEIVEEVAPKTKVSIIIDVDGEVSQEVIDLIAERADEIEKKYPNVTVIIALDEE
B24: LC3A_free_8_2476 (protein)
chain: KVEELVKKITALLDKLEEESTKLAKELGVDELDILELELAIGSAIAELISASDKSIEEVRKVAEEEMAEIKEIAKELGEEIYKLVEETTKEILKLIEEAE
B25: LC3A_28_876 (protein)
chain: MSVEEALAAAEAEVDAAVAAGEEALVEVVITEPISEEEARALVAGLEAIVARGASLPRLDIVISLSTKVSQAARDIIADGAEAIEARYPHVTVIIALEEE
B26: LC3A_127_218 (protein)
chain: MLEEILELVDEAARLADKLVEDPSLDEEKALKEIEELLKKALELAKKAGLPEEVIKDIEEALKLVKEAKKANPEERKELLERAALLADGVAIEIESLILK
B27: LC3A_3_1776 (protein)
chain: AEELIKETLEKLKEAGKSEETIEAAREVMTKLKEKGYEEALKTLVEELEKLLDIPDEILLDMLKDVLELLETEDLSEEEIIERIKEEARLARNEAEIEEL
B28: LC3A_28_794 (protein)
chain: AAIEATLAAARKEAEEAKAKGEEVHLTITVPAGTTVEDAKKIVAGMEEIAEFAKDLPSVSIVVDLEAGVSQEVIDVLAEGGERIEEKYPNVNVVIALAEE
B29: LC3A_free_26_2139 (protein)
chain: EKFVDIYLIDEAIDALEKAKELAKKIEGIGEKLVKLLEEALKLIEKETLESLEKAIKILKEIKELIEKDKTIDEETKKELLELVTKALEKVEEVVKIMKE

Biological target: MAP1LC3A, Q9H492
Experiment: median log2 fold change of GCK-ALFA target abundance (FLAG IP / Myc IP barcode read proportion) (log2 ratio); each designed protein is fused to an ALFA-tag nanobody in HEK293 cells to bring the named protein to FLAG-tagged glucokinase (GCK); Myc marks an untargeted standard; higher = target protein stabilised (more abundant)
Conditions: target protein: 3xFLAG-MCP-GCK-ALFA reporter; HEK293 landing pad (RPLP)
Method in brief: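 The readout is target abundance, the per-binder median log2 ratio of FLAG to Myc barcode read proportions. It came from HEK293 landing-pad cells carrying a recombined ALFA-nanobody-fused binder library, induced with 2 μg mL^−1 doxycycline and transfected with a plasmid for a FLAG-tagged target and a Myc-tagged standard. After 48 h, lysates were immunoprecipitated with anti-FLAG and anti-Myc, and circular RNA barcodes were reverse transcribed, amplified and sequenced. Each barcode needed a proportion of at least 10^−7 in both replicates and each binder at least 3 barcodes per replicate, a pseudocount of 10^−6 was added, and the replicates were pooled.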

| Binder | median log2 fold change |
| --- | --- |
| B1 | 0.0682 |
| B2 | 0.0666 |
| B3 | 0.404 |
| B4 | -0.192 |
| B5 | -0.134 |
| B6 | -0.334 |
| B7 | -0.013 |
| B8 | -0.431 |
| B9 | 0.307 |
| B10 | 0.127 |
| B11 | 0.153 |
| B12 | -0.515 |
| B13 | 0.109 |
| B14 | 0.186 |
| B15 | 0.357 |
| B16 | 0.185 |
| B17 | 0.299 |
| B18 | 0.461 |
| B19 | -0.15 |
| B20 | 0.3 |
| B21 | -0.0507 |
| B22 | -0.285 |
| B23 | -0.0444 |
| B24 | 0.0134 |
| B25 | 0.23 |
| B26 | -0.0102 |
| B27 | 0.263 |
| B28 | 0.283 |
| B29 | 0.132 |

Reference: the supplement of paper PMC12632987
